PMC11588662 (2024)

Target: CD33 Db-FM (fluorescein-maleimide-labelled anti-CD33 diabody, clone SGN-33) (fluorescein-5-maleimide on the engineered C-terminal cysteine (added after the hexahistidine tag))
Assay: FACS; apparent Kd, on MOLM14-CD117high cells

Kd: 0.44 nM
B1: CD33 on human AML cells (Kasumi-1, HL-60, MOLM14) (receptor)
chain: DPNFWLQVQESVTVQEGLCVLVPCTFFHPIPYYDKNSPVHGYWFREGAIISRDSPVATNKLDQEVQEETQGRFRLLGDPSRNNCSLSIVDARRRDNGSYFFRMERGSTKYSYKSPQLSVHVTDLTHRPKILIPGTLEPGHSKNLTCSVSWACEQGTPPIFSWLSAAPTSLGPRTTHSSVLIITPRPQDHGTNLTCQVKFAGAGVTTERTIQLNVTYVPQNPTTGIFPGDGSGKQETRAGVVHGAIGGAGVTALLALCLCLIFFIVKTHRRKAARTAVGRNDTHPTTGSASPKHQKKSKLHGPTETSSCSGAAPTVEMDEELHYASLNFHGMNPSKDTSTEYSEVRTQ
